These results are taken from the BET-seq Pho4 binding data (Le et al. 2018).

The list shows a part of the results. Values were computed here from the reads of four pooled replicates and scatter widely.

In the test the target is T1, Pho4 (S. cerevisiae) (UniProt P07270).
T1 sequence: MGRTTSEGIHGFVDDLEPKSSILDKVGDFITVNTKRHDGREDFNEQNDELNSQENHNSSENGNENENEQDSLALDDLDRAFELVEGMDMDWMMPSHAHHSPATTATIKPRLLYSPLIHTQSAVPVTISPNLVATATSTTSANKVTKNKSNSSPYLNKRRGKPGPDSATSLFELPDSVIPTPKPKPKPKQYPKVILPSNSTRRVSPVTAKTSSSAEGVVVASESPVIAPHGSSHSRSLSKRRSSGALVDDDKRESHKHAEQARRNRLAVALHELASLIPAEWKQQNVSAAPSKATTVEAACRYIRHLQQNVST
Description: relative binding free energy (BET-seq); higher = weaker binding. To be noted: reference: library average.
In the case of CGTATCACGTGTTTGG, the “relative binding free energy” value was determined as 0.05 kcal/mol.

For TGCGGCACGTGCGGGG, the “relative binding free energy” value is -0.16 kcal/mol.

Consider CTTGTCACGTGGGGAC, for which the “relative binding free energy” value is -0.09 kcal/mol.

For AGTGGCACGTGCGCTG, the “relative binding free energy” value is -0.28 kcal/mol.

With CTCAGCACGTGAGGTT, the “relative binding free energy” value worked out at 0.26 kcal/mol.

GCTTGCACGTGGGGCT: the “relative binding free energy” value was -0.28 kcal/mol.

For CGTTGCACGTGTCATT, the “relative binding free energy” value was determined as 0.08 kcal/mol.

For the sequence GTGGCCACGTGTTGTA, the “relative binding free energy” value is -0.07 kcal/mol.

For CAAGGCACGTGGGTTA, the “relative binding free energy” value was -0.24 kcal/mol.

With TGAATCACGTGGGGAG, the “relative binding free energy” value amounted to 0.14 kcal/mol.

With CTTCACACGTGTGGTG, the “relative binding free energy” value turned out to be 0.05 kcal/mol.

Turning to GAAACCACGTGTGGTT, the “relative binding free energy” value is 0.17 kcal/mol.

TGGTGCACGTGACATT: the “relative binding free energy” value amounted to 0.1 kcal/mol.

Take TGGAACACGTGTTTGG: the “relative binding free energy” value was found to be 0.06 kcal/mol.

On to GGTAACACGTGTGTGT, for which the “relative binding free energy” value was 0.04 kcal/mol.

Consider ATGAGCACGTGCAGGG, for which the “relative binding free energy” value is -0.17 kcal/mol.

Consider CTGTGCACGTGAGGCT, for which the “relative binding free energy” value stood at 0.25 kcal/mol.

For CGCTTCACGTGGGATT, the “relative binding free energy” value was 0.3 kcal/mol.

For AATGTCACGTGTGGAT, the “relative binding free energy” value was 0.1 kcal/mol.

For the sequence GTCTACACGTGAGTGA, the “relative binding free energy” value was determined as 0.36 kcal/mol.

Take TGGATCACGTGAAATT: the “relative binding free energy” value stood at 0.42 kcal/mol.

GTGGGCACGTGAGATG: the “relative binding free energy” value worked out at 0.2 kcal/mol.

As for GAGGTCACGTGAGGAT, the “relative binding free energy” value was 0.52 kcal/mol.

For the sequence CGTTACACGTGGAAGG, the “relative binding free energy” value was 0.14 kcal/mol.

Take GTAAGCACGTGATGCG: the “relative binding free energy” value is -0.01 kcal/mol.

On to GAGGGCACGTGGGTTT, for which the “relative binding free energy” value is -0.1 kcal/mol.

For the sequence TGCAGCACGTGTTCGG, the “relative binding free energy” value was -0.07 kcal/mol.

On to GTTGGCACGTGCTATG, for which the “relative binding free energy” value is -0.17 kcal/mol.

As to GTCTACACGTGGGGGT, the “relative binding free energy” value was 0.01 kcal/mol.

As to GGATGCACGTGAGGGA, the “relative binding free energy” value was determined as 0.3 kcal/mol.

Consider AGTCACACGTGTGGGA, for which the “relative binding free energy” value was -0.03 kcal/mol.

As for ATTGTCACGTGGGGAG, the “relative binding free energy” value turned out to be 0.04 kcal/mol.

As to TGTCTCACGTGATGCG, the “relative binding free energy” value turned out to be 0.2 kcal/mol.

GTTTTCACGTGCACGG: the “relative binding free energy” value was determined as 0.17 kcal/mol.

Take GAAGTCACGTGGCTGT: the “relative binding free energy” value is 0.13 kcal/mol.

For AGGGCCACGTGGTGGG, the “relative binding free energy” value was -0.17 kcal/mol.

With CGTGTCACGTGATAAG, the “relative binding free energy” value is 0.14 kcal/mol.

As to TGGCTCACGTGTAGTG, the “relative binding free energy” value was 0.21 kcal/mol.

For the sequence TTTGACACGTGGAACG, the “relative binding free energy” value stood at 0.07 kcal/mol.

In the case of TTAGACACGTGTAATT, the “relative binding free energy” value is 0.15 kcal/mol.

On to ACGTTCACGTGGGGGC, for which the “relative binding free energy” value came to 0.18 kcal/mol.

In the case of TCGGACACGTGGGGTA, the “relative binding free energy” value was -0.24 kcal/mol.

Regarding ACGTGCACGTGTTGAT, the “relative binding free energy” value was -0.09 kcal/mol.

On to TGTTACACGTGTAGAA, for which the “relative binding free energy” value was found to be 0.22 kcal/mol.

TCTGGCACGTGGATTT: the “relative binding free energy” value was 0.12 kcal/mol.

Consider CTGGCCACGTGGTTGG, for which the “relative binding free energy” value is -0.09 kcal/mol.

For the sequence GGATGCACGTGTTTTG, the “relative binding free energy” value came out at 0.13 kcal/mol.

For TGTGTCACGTGAGGTA, the “relative binding free energy” value was found to be 0.25 kcal/mol.

Turning to GTATCCACGTGGGGGC, the “relative binding free energy” value was -0.15 kcal/mol.

Regarding TTTGGCACGTGCCATG, the “relative binding free energy” value is -0.21 kcal/mol.

For ATAGTCACGTGGATGG, the “relative binding free energy” value turned out to be 0.07 kcal/mol.

As to CTGCGCACGTGTAGGG, the “relative binding free energy” value was -0.25 kcal/mol.

Turning to TGCAACACGTGGGGCT, the “relative binding free energy” value is -0.14 kcal/mol.

For CTGTGCACGTGTGCTT, the “relative binding free energy” value worked out at 0.04 kcal/mol.

For GATGTCACGTGGGCTG, the “relative binding free energy” value was -0.01 kcal/mol.

Regarding TGCTTCACGTGTTACG, the “relative binding free energy” value is 0.32 kcal/mol.

With GTGTTCACGTGTCCTG, the “relative binding free energy” value worked out at 0.24 kcal/mol.

As to TGAAGCACGTGTTGGT, the “relative binding free energy” value is -0.1 kcal/mol.

As to ATAAACACGTGTAGGA, the “relative binding free energy” value worked out at 0.15 kcal/mol.

With TACTTCACGTGGAGGG, the “relative binding free energy” value stood at 0.16 kcal/mol.

As for TAGTTCACGTGCTAAT, the “relative binding free energy” value worked out at 0.29 kcal/mol.

On to AGAGGCACGTGAGTAT, for which the “relative binding free energy” value is -0.01 kcal/mol.

On to ATTGACACGTGATAGG, for which the “relative binding free energy” value worked out at 0.03 kcal/mol.

In the case of CTTTACACGTGGTAAG, the “relative binding free energy” value was found to be 0.09 kcal/mol.

On to TAGTGCACGTGGGGAG, for which the “relative binding free energy” value was -0.11 kcal/mol.

Take TTATGCACGTGTTAGA: the “relative binding free energy” value was 0 kcal/mol.

On to GTTGTCACGTGGGACG, for which the “relative binding free energy” value turned out to be 0.06 kcal/mol.

Take AACGGCACGTGTTAGT: the “relative binding free energy” value is -0.04 kcal/mol.

With GTTTACACGTGAGGTG, the “relative binding free energy” value amounted to 0.35 kcal/mol.

AGGGGCACGTGTGGTA: the “relative binding free energy” value is -0.02 kcal/mol.

As for ATGGGCACGTGGTATA, the “relative binding free energy” value is -0.19 kcal/mol.

Turning to AGTCTCACGTGGGTGC, the “relative binding free energy” value came out at 0.07 kcal/mol.

Consider AAGAGCACGTGGACGG, for which the “relative binding free energy” value came out at 0.08 kcal/mol.

Turning to TCAGTCACGTGGACGG, the “relative binding free energy” value worked out at 0.17 kcal/mol.

In the case of GGCATCACGTGGGGAA, the “relative binding free energy” value came out at 0.12 kcal/mol.

For CGAGTCACGTGTACGG, the “relative binding free energy” value is 0.24 kcal/mol.

Regarding TTATGCACGTGTGGCT, the “relative binding free energy” value is -0.05 kcal/mol.

With GTTATCACGTGGGCTC, the “relative binding free energy” value was 0.27 kcal/mol.

Regarding TTGATCACGTGCTATG, the “relative binding free energy” value is -0.04 kcal/mol.

For the sequence CGGGGCACGTGGGATC, the “relative binding free energy” value was -0.17 kcal/mol.

Take GCGATCACGTGGAGTG: the “relative binding free energy” value amounted to 0.21 kcal/mol.

With GGGGTCACGTGTGTAT, the “relative binding free energy” value was 0.15 kcal/mol.

On to TTTAGCACGTGAACTG, for which the “relative binding free energy” value came to 0.24 kcal/mol.

In the case of ATCAACACGTGGGTGT, the “relative binding free energy” value was -0.16 kcal/mol.

For CTTGGCACGTGGTGGC, the “relative binding free energy” value was -0.15 kcal/mol.

As for GTAGTCACGTGCGGGT, the “relative binding free energy” value turned out to be 0.15 kcal/mol.

Take AGAGTCACGTGGTGCG: the “relative binding free energy” value was determined as 0.02 kcal/mol.

In the case of GTTAACACGTGAGCGG, the “relative binding free energy” value amounted to 0.24 kcal/mol.

With AGTTTCACGTGGTAAG, the “relative binding free energy” value is 0.28 kcal/mol.

AAGTGCACGTGCTGGT: the “relative binding free energy” value was determined as 0.03 kcal/mol.

On to TTCTGCACGTGTGGTC, for which the “relative binding free energy” value was found to be 0.04 kcal/mol.

Consider TGAGGCACGTGGAGTA, for which the “relative binding free energy” value is -0.11 kcal/mol.

Consider ATTTACACGTGGATGA, for which the “relative binding free energy” value is -0.04 kcal/mol.

ATGGGCACGTGTGACG: the “relative binding free energy” value was -0.07 kcal/mol.

As for AAGCACACGTGGGGGG, the “relative binding free energy” value was -0.29 kcal/mol.

Consider ATTGGCACGTGTTCGA, for which the “relative binding free energy” value is -0.24 kcal/mol.

Take TTATGCACGTGGTAAA: the “relative binding free energy” value is -0.09 kcal/mol.

Regarding ATTCGCACGTGTGGCT, the “relative binding free energy” value was -0.02 kcal/mol.

Turning to TGAAGCACGTGGATCG, the “relative binding free energy” value came to 0.09 kcal/mol.

With AAGCTCACGTGGGGCG, the “relative binding free energy” value turned out to be 0.06 kcal/mol.

Regarding ATGCGCACGTGGGGCA, the “relative binding free energy” value was -0.2 kcal/mol.

Consider GTTTGCACGTGATCTA, for which the “relative binding free energy” value was found to be 0.04 kcal/mol.

With TGTTGCACGTGTATGT, the “relative binding free energy” value came out at 0.14 kcal/mol.

As to GATGGCACGTGGGATG, the “relative binding free energy” value was -0.15 kcal/mol.

Take TTGTCCACGTGGCAGG: the “relative binding free energy” value turned out to be 0.02 kcal/mol.

As to ATTCTCACGTGTTATG, the “relative binding free energy” value stood at 0.22 kcal/mol.

Turning to GTCAGCACGTGCGGTA, the “relative binding free energy” value was -0.04 kcal/mol.

As for AGTGGCACGTGTGCGG, the “relative binding free energy” value was -0.14 kcal/mol.

With TGATTCACGTGTGTCT, the “relative binding free energy” value was 0.24 kcal/mol.

On to AGTTTCACGTGGGAAT, for which the “relative binding free energy” value was found to be 0.17 kcal/mol.

In the case of TGGTGCACGTGTGAGG, the “relative binding free energy” value was determined as 0.07 kcal/mol.

With CGTTACACGTGCGTGT, the “relative binding free energy” value was -0.11 kcal/mol.

As for AAAAGCACGTGTTCGG, the “relative binding free energy” value amounted to 0.08 kcal/mol.

For the sequence ATTATCACGTGTTCAG, the “relative binding free energy” value was 0.01 kcal/mol.

Consider TATGACACGTGCATTG, for which the “relative binding free energy” value was 0 kcal/mol.
